# In paper PMC4336329 (PLoS ONE, 2015):
# Screen size: about 310,000 compounds; about 14,000 (4.5%) showed an effect of 50% or more. Effects have a minus sign here. The list shows a part of the results.
# Biological target: human ether-à-go-go-related gene (hERG) potassium channel (human, UniProt Q12809)
# Experiment: primary screen, population patch clamp on CHO cells stably expressing hERG
# 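Also: peak tail current of the secondary pulse compared with the same well before compound.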
# human ether-à-go-go-related gene (hERG) potassium channel, sequence (Q12809 whole entry, looked up): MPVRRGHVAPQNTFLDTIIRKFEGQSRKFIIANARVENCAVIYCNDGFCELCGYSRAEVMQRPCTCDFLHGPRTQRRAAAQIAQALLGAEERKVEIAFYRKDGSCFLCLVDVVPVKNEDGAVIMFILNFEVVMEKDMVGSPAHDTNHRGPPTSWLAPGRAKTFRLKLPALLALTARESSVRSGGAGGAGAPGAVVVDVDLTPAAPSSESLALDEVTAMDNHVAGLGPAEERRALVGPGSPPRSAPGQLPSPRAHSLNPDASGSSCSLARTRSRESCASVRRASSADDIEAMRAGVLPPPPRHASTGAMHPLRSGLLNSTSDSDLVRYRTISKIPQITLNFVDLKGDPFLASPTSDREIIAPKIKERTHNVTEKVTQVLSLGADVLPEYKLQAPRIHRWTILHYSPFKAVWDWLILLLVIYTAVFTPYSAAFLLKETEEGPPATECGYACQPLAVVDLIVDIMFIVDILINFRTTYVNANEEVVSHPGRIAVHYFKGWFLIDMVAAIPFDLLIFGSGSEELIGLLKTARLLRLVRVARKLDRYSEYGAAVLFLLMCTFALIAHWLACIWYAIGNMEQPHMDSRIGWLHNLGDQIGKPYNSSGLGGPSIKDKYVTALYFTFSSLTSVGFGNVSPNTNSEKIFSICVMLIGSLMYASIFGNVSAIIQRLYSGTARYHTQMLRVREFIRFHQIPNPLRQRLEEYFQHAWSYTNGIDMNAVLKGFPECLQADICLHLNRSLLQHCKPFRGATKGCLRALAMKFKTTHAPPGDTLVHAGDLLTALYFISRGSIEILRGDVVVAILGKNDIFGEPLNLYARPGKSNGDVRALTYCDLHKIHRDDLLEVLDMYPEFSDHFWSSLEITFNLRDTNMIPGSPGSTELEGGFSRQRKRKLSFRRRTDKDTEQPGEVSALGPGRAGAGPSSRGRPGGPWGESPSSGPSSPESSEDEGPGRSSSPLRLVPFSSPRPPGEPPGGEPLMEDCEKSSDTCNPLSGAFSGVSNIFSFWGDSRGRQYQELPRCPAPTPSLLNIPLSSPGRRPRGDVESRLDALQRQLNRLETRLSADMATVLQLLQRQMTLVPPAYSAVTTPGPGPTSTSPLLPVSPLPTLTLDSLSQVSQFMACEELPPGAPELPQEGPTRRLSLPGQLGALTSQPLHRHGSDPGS
row,Compound,"hERG current change (%, negative = inhibition) at 10uM [%]"
1,CCc1c(C(=O)NCc2ccccc2Cl)[nH]c(C)c1C(C)=O,-3.66
2,O=c1n(Cc2ccccc2F)c2ccccc2n1Cc1ccccc1F,19.4
3,CCOc1ccc(C(C(=O)NC2CCCCC2)N(C(=O)Cc2cccs2)c2ccc(-n3cnnn3)c(OC)c2)cc1 (stereo not shown),-15.7
4,CC(=O)Nc1ccc(NC(=O)CSc2nnc(NC(=O)c3ccco3)s2)cc1,-5.89
5,CCc1nc(Nc2ccc(N3CCN(C(C)=O)CC3)cc2)c2oc3ccccc3c2n1.Cl,-43.7
6,Cc1cc(C)n(-c2nnc(C)n2NS(=O)(=O)c2ccc(F)cc2)n1,4.61
7,COc1ccc(C(=O)Nc2ccc(CN3CCOCC3)cc2)cc1,-1.82
8,Cc1c(NC(=O)COc2cccc(Cl)c2Cl)c(=O)n(-c2ccccc2)n1C,-71.4
9,C=CCn1c(COc2ccc(F)cc2)nnc1SCC(=O)Nc1cccc(S(N)(=O)=O)c1,3.43
10,COc1cc(OC)cc(-c2c(-c3cccs3)c3cc(-c4ccc(OC)nc4)ccc3n2C)c1,3.4
11,COc1ccc(CNCCC(c2ccc(OC(C)C)cc2)c2ccccc2OC)cc1OC (stereo not shown),-71.3
12,CCOc1cc(/C=C2\SC(=S)N(Nc3ccccc3)C2=O)ccc1O,4.85
13,O=C(C1CCN(C2CCN(Cc3ccc4c(c3)CCO4)CC2)CC1)N1CCCC1,-43
14,COC(=O)c1ccc(CSc2ccc3nnc(-c4ccccc4)n3n2)o1,-53.5
15,CC(C)CC(=O)N1CCN(Cc2ccc(Cl)cc2)CC1,-9.67
16,COc1ccc(S(=O)(=O)N2CCCN(CC(=O)Nc3ccccc3F)CC2)cc1,-55.7
17,CCCNc1nc(Nc2ccc(C)cc2)nc(N2CCCC2)n1,-30.6
18,CCc1nnc(NC(=O)c2ccc(S(=O)(=O)N3CCCC3)cc2)s1,14.7
19,COc1ccccc1NC(=S)N1CCNC(=O)C1CC(=O)Nc1cccc(C)c1 (stereo not shown),-13.2
20,CCCCC(=O)Nc1ccc(C(=O)Nc2cccnc2)cc1,-7.52
21,C=CCN1C(=O)NC(=O)/C(=C/c2cnc(SC)nc2)C1=O,-5.78
22,CN1CCN(C(=O)c2ccccc2NC(=O)C(C)(C)C)CC1,12.2
23,CCN(c1ccc(F)cc1)S(=O)(=O)c1cccc2nsnc12,2.4

row,Compound,"hERG current change (%, negative = inhibition) at 10uM [%]"
1,CC1(C)CC(C)(c2ccc(O)cc2O)N(c2ccc3ccccc3c2)C(=S)N1 (stereo not shown),7.99
2,S=C(Nc1cccnc1)Nc1ccccn1,8.48
3,CCS(=O)(=O)N1Cc2ccccc2CC1C(=O)Nc1cccc(S(=O)(=O)N(C)C)c1 (stereo not shown),16.2
4,COCCNc1cc(C)nc2c(-c3ccccc3OC)c(C)nn12,0.113
5,COc1cc([N+](=O)[O-])ccc1NC(=O)CN1CCc2cc(OC)c(OC)cc2C1,-22.1
6,O=C(O)c1ccc(C(=O)c2ccc3c(c2)C(=O)N(CC2CCCO2)C3=O)cc1 (stereo not shown),12.5
7,C=CCC1NS(=O)(=O)OCC1NC(=O)OCC(Cl)(Cl)Cl (stereo not shown),2.88
8,CCn1ncc(C2=NOC(C(=O)NCC(C)C)C2)c1C (stereo not shown),1.39
9,O=[N+]([O-])c1ccccc1-n1cnc2ccccc21,-18.2
10,O=C(NC(C(=O)O)c1ccccc1)c1ccccc1 (stereo not shown),12.3
11,CCOc1ccc(CNC(=O)C(CC)n2nc(C)n3c(cc4occc43)c2=O)cc1OC (stereo not shown),2.07
12,CCO[C@@H]1OC(C(N)=O)=C[C@H](c2cn(C(C)=O)c3ccccc23)[C@H]1CCCO,6.45
13,CCSc1nnc(-c2ccccc2SC)o1,1.26
14,Cc1ccc(C)c2[nH]c(=O)c(CCNC(=O)C(C)(C)C)cc12,8.5
15,Cc1nn(Cc2c(F)c(F)c(F)c(F)c2F)c(C)c1NC(=O)c1cccc(COc2ccccc2Cl)c1,-3.4
16,O=C(NN1CCOCC1)c1cc(-c2ccc(Br)cc2)nc2ccccc12,-30
17,O=C(CCN1CCOCC1)NCC1COc2ccccc2O1 (stereo not shown),15.4
18,Cc1cccc(C(=O)NCC(=O)N2CCCCCCC2)c1,6.78
19,O=C(NC1CCCCCC1)c1ccc2nc3cc(Cl)ccc3c(=O)n2c1,7.94
20,Cn1cnnc1SCC(=O)NC1CCCN(Cc2ccc(Cl)cc2)C1 (stereo not shown),-0.412
21,CC1(C)Oc2ccc3ccc(=O)oc3c2C(N2CCCCC2)C1O (stereo not shown),-3.77
22,COc1ccc(NC(=O)Cn2c(CCC(=O)O)ccc2-c2ccccc2)cc1,11.5
23,CC(C)CC(=O)Nc1ncc([N+](=O)[O-])s1,17.9

row,Compound,"hERG current change (%, negative = inhibition) at 10uM [%]"
1,O=C(NC(=S)Nc1ccccn1)c1cncc(Br)c1,-2.34
2,Cc1ccc(-c2nnn(CC(=O)N(CC3CCCO3)C(C(=O)NC(C)(C)C)c3ccc(F)cc3)n2)o1 (stereo not shown),15.4
3,COc1ccc(/C=C/C(=O)NC(=S)N2CCN(C)CC2)cc1,-9.1
4,O=C(O)COc1ccc(F)cc1Br,5.42
5,Cc1cc2oc(=O)cc(CN3CCC(C)CC3)c2cc1Cl,5.75
6,O=C(OCc1cnc(Cl)s1)c1cccc(Cl)c1Cl,8.04
7,CC(C)CC(C)NC(=O)c1ccc(C(F)(F)F)cc1 (stereo not shown),-5.96
8,COC(=O)c1ccc(OCC2c3cc(OC)c(OC)cc3CCN2C(C)=O)cc1 (stereo not shown),8.8
9,CCc1ccc(-c2ccc(C(=O)O)c(C)n2)cc1,2.68
10,COc1ccccc1CNC(=O)c1ccc(S(=O)(=O)N2CCCC2)cc1,-6.43
11,COc1ccccc1/C=C/C=C(\C#N)C(=O)NC(C)c1ccccc1 (stereo not shown),5.31
12,O=c1[nH]nc(CNc2ccc(O)cc2)c2ccccc12,-6.61
13,O=C(CCSCc1ccc(Cl)cc1)NC1CCCC1,-24.8
14,Cc1cccc(NC(=O)Cc2c(F)cccc2Cl)n1,5.01
15,CCN=c1sc(C(=O)OC)cc(=O)n1CC,13.1
16,O=C1CCc2cc(S(=O)(=O)NC(C(=O)N3CCN(c4ccccn4)CC3)c3ccccc3)ccc2N1 (stereo not shown),-20.4
17,CC(C)C(=O)Nc1oc(-c2ccccc2)cc1C#N,15.2
18,CCOc1ccc(S(=O)(=O)n2cc(F)c(=O)[nH]c2=O)cc1,22.7
19,CCOc1ccccc1N(CC(=O)Nc1ccccc1F)S(=O)(=O)c1ccccc1,-2.97
20,O=C1Nc2ccccc2C(O)(C(=O)NCc2ccco2)N1c1ccccc1 (stereo not shown),-5.07
21,CCC(C)C(NC(N)=O)C(=O)Nc1ccc(C)c(Cl)c1 (stereo not shown),10.9
22,O=C(O)CCN=C1CCc2ccccc2N1,20.2
23,Cc1nc2cc(-c3ccc(F)cc3)[nH]n2c(=O)c1C,-2.48

row,Compound,"hERG current change (%, negative = inhibition) at 10uM [%]"
1,Cc1cccc(NS(=O)(=O)c2ccc(NS(=O)(=O)c3cccs3)cc2)c1,2.35
2,O=C(Nc1ccccc1C(=O)N1CCOCC1)c1cc2ccccc2o1,15
3,CCOc1ccc(CC(=O)NNC(=S)Nc2ccc(OC)c(OC)c2)cc1,18.6
4,Nc1nc(-c2cc(-c3ccccc3)no2)cs1,9.7
5,Cc1ccc(OCC(=O)NC(=S)Nc2ccc3c4c(cccc24)CC3)cc1,14.6
6,COc1ccc(CNC(=O)Cn2ccc(N)nc2=O)cc1,13.6
7,O=c1cc(-c2ccncc2)oc2c1ccc1ccccc12,-4.57
8,O=C(Cc1ccc(Cl)c(Cl)c1)Nc1cccnc1,-6.99
9,CCOc1ccc(N=C2NC(=O)/C(=C/C(=O)OC)S2)cc1,13.1
10,CCc1ccc(NC(=O)COC(=O)CN2C(=O)COc3ccccc32)cc1,-3.56
11,COC(=O)C1=C(C)N(c2cccc(C(C)=O)c2)C(=O)C1,7.45
12,CC(C)OC(=O)CSc1nnc(C2CCCCC2)n1N,13.4
13,O=C(CCCNS(=O)(=O)c1cccc2nsnc12)NCc1ccc(Cl)cc1,-37.9
14,CCC(=O)Nc1ccc2c(c1)nc(CCN1CCC(C)CC1)n2C,1.48
15,CCN(CC)S(=O)(=O)c1ccc(NC2c3ccccc3C(=O)N2CCN2CCOCC2)cc1 (stereo not shown),-37
16,Cc1cc2c(cc1S(=O)(=O)CCC(=O)NCCc1ccccc1)OCC(=O)N2,-44.6
17,COc1ccc(/C=N/NC(=O)CNc2c(Br)cc(C)cc2Br)c(C(=O)O)c1OC,4.18
18,COCCCn1c(SCc2ccccc2)nc2cc(OC)c(OC)cc2c1=N,-0.437
19,Nc1nc(CSC(=S)N2CCOCC2)nc(Nc2ccccc2)n1,7.38
20,C/C(=N\NC(=O)c1cc(Br)ccc1O)c1ccccn1,15.4
21,CC(C)[C@H](NC(=O)NCCc1ccc(F)cc1)C(=O)O,3.8
22,COc1cccc(C(=O)Nc2cccc(OC(C)=O)c2)c1,2.26
